These results are taken from ChEMBL document CHEMBL4888484, “Replenishing the malaria drug discovery pipeline: Screening and hit evaluation of the MMV Hit Generation Library 1 (HGL1) against asexual blood stage Plasmodium falciparum ,using a nano luciferase reporter read-out” (2022).

Hit rate of the full screen: of about 150,000 compounds, about 540 (0.36%) showed an effect of 50% or more. Some of the results follow.

As usually defined, the % Inhibition is the change of the read-out against control, counted positive when it falls.

In the assay the test system is Plasmodium falciparum. Briefly: Primary screen in NF54 nanoGlo assay, in single point, at 2uM, 72h; a lower Z score goes with more inhibition. Type of assay: functional, Erythrocyte. The note with it: timepoint 72 hour.
As for `Cc1nc(C(=O)N(c2cccc(C(F)(F)F)c2)[C@@H](C)C2CC2)cs1`, the “% Inhibition” value is listed as 6% and the Z score is -1.01.
The matching figures for `CN(Cc1ccsc1)C(=O)c1cc2ccccc2[nH]1`: 58% and -6.32.
In the same order, the values of `COCC1(F)CCN(Cc2c(-c3ccc(OC)cc3)nc3cc(C)ccn23)CC1` are -8% and 1.12.
The matching figures for `CCC(C(=O)N1C2CCCC1COC2)c1ccccc1` (stereo unspecified): -13% and 2.43.
In the case of `CNc1cc(-c2nc3c(c(NC)n2)CCC3)c2cc[nH]c2n1`, the “% Inhibition” value is on record as -2% and the Z score is listed as 0.29.
As for `O=C(NCCCN1CCCC1=O)c1ccoc1`, the “% Inhibition” value is -3% and the Z score was found to be 0.37.
In the same order, the values of `CCCOc1cc(N2CCC(O)CC2)ccc1NC(=O)[C@@H](C)C1CC1` are -5% and 0.59.
For `OCc1cccc(CNCc2c[nH]nc2-c2cccnc2)c1`, the “% Inhibition” value is -4% and the Z score is 0.34.
With `COC[C@@H]1CCC[C@@H]1NC(=O)c1cnc(COc2ccccc2)nc1O`, the “% Inhibition” value is -15% and the Z score is recorded as 2.7.
In the same order, the values of `COC(C)(C)c1noc(-c2cccc3cc[nH]c23)n1` are 12% and -1.44.
The matching figures for `CCc1ocnc1C(=O)N1CC[C@@H]2OCc3cccc(c3)Oc3ccc(cc3OC)CCC(=O)N(CCCOC)CC(=O)N[C@@H]2C1`: -1% and 0.17.
The matching figures for `COc1ncccc1Cn1cnc(C)c(C)c1=O`: 4% and -0.53.
In the case of `CC[C@@H](Cn1ccnc1)Nc1ccc2ccccc2n1`, the “% Inhibition” value is -8% and the Z score stood at 0.88.
In the case of `O=c1[nH]cc(C(F)(F)F)cc1Br`, the “% Inhibition” value is -1% and the Z score is recorded as 0.19.
The matching figures for `COc1ccc(CN2C(C)COCC2C)cc1OCc1cccnc1` (stereo unspecified): 6% and -0.71.
Take `COC(=O)c1cc(NC(=O)Nc2cc(C)n[nH]2)cc(Cl)c1F`: the “% Inhibition” value is on record as -3% and the Z score worked out at 0.37.
The matching figures for `C[C@@H](NC(=O)c1ccncc1Br)c1cc2ccccc2o1`: 3% and -0.62.
In the same order, the values of `Cc1cccc2[nH]cc(CCNC(=O)C(=O)Nc3cnn(CC(=O)N(C)C)c3)c12` are -8% and 1.31.
In the same order, the values of `C[C@@H]1CN(Cc2cncc(F)c2)C[C@H](C)N1Cc1cncc(F)c1` are -7% and 1.16.
On to `COc1cc(NCCCc2nnc3ccccn23)nc(N)n1`, for which the “% Inhibition” value is on record as 3% and the Z score was -0.58.
In the same order, the values of `CCN(CC)CCNC(=O)CC1CCN(C(=O)c2ccc3nc(-c4ccccc4)oc3c2)CC1` are -22% and 2.62.
The matching figures for `Cc1noc(C)c1C(=O)NCc1nnc(N)s1`: -10% and 1.89.
In the same order, the values of `CCn1c(-c2cc(NC(=O)Cc3cccc(Cl)c3)[nH]n2)cc2ccc(OC)cc21` are 6% and -0.89.
As to `Cc1noc(C)c1S(=O)(=O)N[C@@H](C)C(=O)NCCc1cnc(C2CC2)nc1`, the “% Inhibition” value is recorded as -11% and the Z score worked out at 1.61.
In the same order, the values of `CC(=O)N[C@@H](Cc1ccccc1F)C(=O)N1CCN(Cc2cccc(-c3noc(-c4cccc(C(F)(F)F)c4)n3)c2)CC1` are -7% and 0.7.
Take `CC(CC(=O)NC(C(N)=O)C(C)C)c1ccccc1Br` (stereo unspecified): the “% Inhibition” value was determined as 25% and the Z score is on record as -2.8.
Take `Cc1ccc(Cc2nnn(CC(O)CN3CC(C)OC(C)C3)n2)cc1` (stereo unspecified): the “% Inhibition” value is -3% and the Z score is on record as 0.36.
For the compound `CN(CCc1ccccn1)Cc1cccs1`, the “% Inhibition” value is on record as 1% and the Z score is recorded as -0.19.
The matching figures for `Cc1cc(C(=O)Nc2cccc(CCN(C)C3CC3)c2)nc2nc(O)[nH]c(=O)c12`: -11% and 1.74.
The matching figures for `O=C(Nc1cc(C(F)(F)F)ccc1Cl)C1CCC(N2C(=O)c3ccccc3C2=O)CC1` (stereo unspecified): 8% and -0.99.
Consider `COc1cccc(NS(=O)(=O)c2ccc(-c3ccno3)o2)c1`, for which the “% Inhibition” value is -3% and the Z score is recorded as 0.53.
In the case of `COC(=O)c1cn(CC(=O)Nc2ccc3c(c2)OCO3)cc2c(O)nnc1-2`, the “% Inhibition” value worked out at 2% and the Z score is on record as -0.44.
In the same order, the values of `CON(C)C(=O)CCc1c(C)[nH]c(=O)c(C#N)c1C` are 11% and -1.18.
As for `COc1ncccc1-c1ccc(CN2CCCCC2)cn1`, the “% Inhibition” value was -5% and the Z score is reported as 0.86.
For the compound `COc1ccc(-c2nnc3c4c(cnn23)nnn4Cc2ccccc2Cl)cc1`, the “% Inhibition” value was -7% and the Z score worked out at 1.21.
In the same order, the values of `COCC1(NC(=O)c2nnc3nc(C)ccn23)CCCC1` are 1% and -0.13.
With `C[C@@H](CO)NC(=O)c1cc2c(s1)CCC2`, the “% Inhibition” value is reported as -37% and the Z score is 4.38.
The matching figures for `COc1ccc(CCC(=O)N2C[C@H](CNC(=O)N3CCCC3)C3(CCOCC3)C2)cc1`: -4% and 0.53.
In the same order, the values of `COc1ccc(N2CCN(C(=O)CC[C@@H]3NC(=O)c4ccccc4N=C3O)CC2)cc1` are 2% and -0.28.
In the same order, the values of `COc1ccc(CN(C(=O)N2CCOCC2)[C@@H](C)C2CC2)c(OC)c1` are -8% and 0.89.
With `CCn1cc(S(=O)(=O)N2CC[C@H]3C(=O)NCCCCCCN(Cc4ccncc4)[C@@H]3C2)cn1`, the “% Inhibition” value is -13% and the Z score is 2.23.
In the same order, the values of `Cc1nc(-c2ccc(-c3cncnc3)s2)cs1` are -11% and 1.17.
As to `O=C(Nc1ccc(Oc2cccc3[nH]ccc23)nc1)[C@@H]1CCCO1`, the “% Inhibition” value came to 14% and the Z score is -1.61.
